The campaign covered roughly 390,000 compounds. About 150 (0.038%) were called active. Inconclusive results, whose numbers are uncertain, are shown with a selection of clear calls. Calls follow the shape of the dose curve; as a rule, active = well fitted inhibition curve with a large enough effect; inconclusive = small, poorly fitted or top-dose-only effect; inactive = no such curve, though single readings can be large or run the other way. A potency beside an inconclusive call is a rough fit, not a confirmed value. Residues, ends and D or L forms follow the SMILES beside them. *: point of attachment. CH2Cl = ClC*
These compounds were tested against Regulator of G-protein signaling 4 (Homo sapiens) (UniProt P49798) (assay: Inhibitors of Regulator of G Protein Signaling (RGS) 4: qHTS). Conditions: Transcreener GDP fluorescence polarization, RGS4-accelerated GTP hydrolysis; series mostly up to 114 µM; activity change, negative = inhibition: at the top concentration.
UniProt P49798, sequence (P49798 whole entry, looked up): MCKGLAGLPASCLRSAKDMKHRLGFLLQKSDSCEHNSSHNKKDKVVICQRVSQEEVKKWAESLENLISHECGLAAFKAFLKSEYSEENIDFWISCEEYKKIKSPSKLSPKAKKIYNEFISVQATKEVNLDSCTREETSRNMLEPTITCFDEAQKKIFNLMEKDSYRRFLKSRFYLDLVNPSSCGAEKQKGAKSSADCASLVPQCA
Method in brief: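 MLSMR compounds (23 nl, pin-transferred) preincubated 10 min at room temperature with a 500nM (2x) first reagent, then RGS4 at 900nM (2x) plus Transcreener GDP mix added; fluorescence polarization (620/688 nm) read before and after 90 min at 30 °C.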
% is scaled to controls: 0 for no effect and ±100 for the full control effect; potency is read from the fitted curve at half-maximal effect; tags tell the direction and shape of the fitted curve.
Also: nearly all actives have a fitted effect of over 75% in size.

Structure (SMILES) | Potency | activity change, negative = inhibition
O=C(CNC(=O)c1cccs1)NCC(=O)OCC(=O)c1ccc([N+](=O)[O-])cc1 | inconclusive: 56.2 µM [inhibitor, partial curve, poor fit] | 
O=C1NC(=O)C(=Cc2ccc(N3CCOCC3)cc2)C(=O)N1 | inconclusive: 35.5 µM [inhibitor, partial curve, poor fit] | 
COc1ccc2c(c1)NP(=S)(c1ccccc1)N2C (stereo not given) | inconclusive: 35.5 µM [inhibitor, partial curve, poor fit] | 
COc1cccc(-n2c(/C=C/c3cccc(C)c3)nc3ccccc3c2=O)c1 |  | inactive: 14.3%
COC(=O)C1=C(c2cc3ccccc3o2)C[C@@H]2CC[C@H]1N2C(=O)NCc1ccco1 |  | inactive: -27.1%
CC(=O)c1ccc2c(c1)C1C(Cl)C(Sc3ccccc3[N+](=O)[O-])CC1C(c1ccccc1)N2 (stereo not given) | inconclusive: 50.1 µM [inhibitor, partial curve, poor fit] | 
[O-]c1ccccc1-[n+]1c(-c2ccccc2)cc(-c2ccccc2)cc1-c1ccccc1 |  | inactive: 20.8%
CC1=CC2/C=C(\C)CCC(O)C(O)/C=C/C(=O)C23C(=O)NC(CC(C)C)C3C1C (stereo not given) | inconclusive: 79.4 µM [inhibitor, partial curve, poor fit] | 
COCCN1C(=O)NC(=O)/C(=C\c2ccc(F)cc2)C1=O | inconclusive: 50.1 µM [inhibitor, partial curve, poor fit] | 
COc1cc(C=C2C(=O)NC(=O)NC2=O)cc(OC)c1OC | inconclusive: 50.1 µM [inhibitor, partial curve, poor fit] | 
C=CCN1CC[C@]23c4c5ccc(O)c4O[C@@H]2/C(=N/N=C2\CC[C@@]4(O)C6Cc7ccc(O)c8c7[C@@]4(CCN6CC=C)[C@@H]2O8)CC[C@@]3(O)C1C5 | inconclusive: 37.7 µM [inhibitor, single point] | 
COc1ccc(CCn2c(O)c(C=Nc3ccc(NC(C)=O)cc3)c(=O)[nH]c2=O)cc1OC | inconclusive: 50.1 µM [inhibitor, partial curve, poor fit] | 
CCOc1ccccc1N=C1SCCCN1C |  | inactive: -27.2%
CCCn1c(=O)c2[nH]c(C3CCCC3)nc2n(CCCOC(=O)c2ccc(S(=O)(=O)F)cc2)c1=O | inconclusive: 7.51 µM [inhibitor, partial curve, poor fit] | 
O=C1Nc2ccccc2/C1=C/c1cnc[nH]1 | inconclusive: 89.1 µM [inhibitor, single point] | 
Cc1cc(C)c(C(=O)CN2CCOCC2)c(C)c1 | inconclusive: 50.1 µM [inhibitor, partial curve, poor fit] | 
COc1ccc2nc3c(C)n(C)ccc-3c2c1 | inconclusive: 89.1 µM [inhibitor, single point] | 
COc1ccc(C(=O)NC(=S)NNC(=O)c2cccnc2)cc1 | inconclusive: 79.4 µM [inhibitor, partial curve, poor fit] | 
O=C(Nc1ccccc1)c1cccn(Cc2ccccc2)c1=O |  | inactive: -32.3%
Cc1ccccc1-n1c(O)c(C=Nc2ccc(N(C)C)cc2)c(=O)[nH]c1=O | inconclusive: 79.4 µM [inhibitor, partial curve, poor fit] | 
CCCCCCC(C)(C)c1ccc([C@@H]2C[C@H](O)CC[C@H]2CCCO)c(O)c1 | inconclusive: 37.7 µM [inhibitor, single point] | 
CCCCN1C(=O)/C(=C/C=C/c2ccco2)C(=O)NC1=S | inconclusive: 20 µM [inhibitor, full curve, poor fit] | 
Cc1cc(C(C#N)c2ccc(Cl)cc2)c(Cl)cc1NC(=O)c1cc(I)cc(I)c1O (stereo not given) | inconclusive: 79.4 µM [inhibitor, partial curve, poor fit] | 
CC(C)[C@@H]1CN[C@H](C(=O)O)[C@@H]1CC(=O)O | inconclusive: 2.99 µM [inhibitor, partial curve, poor fit] | 
Cc1ccc(N/N=C/c2c(O)n(-c3ccccc3)c(=O)[nH]c2=O)cc1 | inconclusive: 79.4 µM [inhibitor, partial curve, poor fit] | 
CNCCc1cnc[nH]1 | inconclusive: 1.19 µM [inhibitor, partial curve, poor fit] | 
CCN(CC)c1ccc(/C=C2/C(=O)NC(=O)N(Cc3ccco3)C2=O)cc1 | inconclusive: 56.2 µM [inhibitor, partial curve, poor fit] | 
O=C(COc1ccccc1)N1CCN(CCN2C(=O)c3cccc4cccc(c34)C2=O)CC1 | inconclusive: 44.7 µM [inhibitor, partial curve, poor fit] | 

Structure (SMILES) | Potency | activity change, negative = inhibition
N#CC(C#N)=Cc1cc(O)c(O)c([N+](=O)[O-])c1 | inconclusive: 0.752 µM [inhibitor, full curve, poor fit] | 
O=C(Cn1cc(C=C2C(=O)NC(=O)NC2=O)c2ccccc21)NCC1CCCO1 (stereo not given) | inconclusive: 70.8 µM [inhibitor, single point] | 
Cc1ccc2nc(C)n(-c3ccc(F)cc3)c(=O)c2c1 | inconclusive: 89.1 µM [inhibitor, partial curve, poor fit] | 
COc1ccc(N2C(=O)NC(=O)/C(=C\c3cn(CC(=O)N4CCOCC4)c4ccccc34)C2=O)c(OC)c1 | inconclusive: 89.1 µM [inhibitor, partial curve, poor fit] | 
CCOC(=O)CC(SP1(=S)OCC2(CCCCC2)CO1)C(=O)OCC (stereo not given) | inconclusive: 89.1 µM [inhibitor, single point] | 
CC(=O)O[C@@]12CO[C@@H]1C[C@H](O)[C@@]1(C)C(=O)[C@H](O)C3=C(C)[C@@H](OC(=O)[C@H](O)[C@@H](NC(=O)c4ccccc4)c4ccccc4)C[C@@](O)([C@@H](OC(=O)c4ccccc4)C12)C3(C)C (stereo not given in full) |  | inactive: -2.69%
Cc1ccc(S(=O)(=O)Nc2ccc3ncccc3c2[N+](=O)[O-])cc1 | inconclusive: 89.1 µM [inhibitor, single point] | 
CNS(=O)(=O)c1ccc(-c2ccc(C=C3C(=O)NC(=O)NC3=O)o2)cc1 | inconclusive: 20 µM [inhibitor, full curve, poor fit] | 
CCN(CC)c1ccc(CC2C(=O)N(C)C(=O)N(C)C2=O)cc1 | inconclusive: 50.1 µM [inhibitor, partial curve, poor fit] | 
CN(C)CCN(CC1CCCN(Cc2ccccc2F)C1)C(=O)Cc1ccccc1F (stereo not given) |  | inactive: 12.6%
COCCCNC(=O)Cn1cc(/C=C2\C(=O)NC(=O)N(c3ccccc3F)C2=O)c2ccccc21 | inconclusive: 44.7 µM [inhibitor, partial curve, poor fit] | 
CCN(CC)c1ccc(/C=C2\C(=O)NC(=O)N(CC3CCCO3)C2=O)cc1 (stereo not given) | inconclusive: 56.2 µM [inhibitor, partial curve, poor fit] | 
CN1C[C@H](CO)C[C@@H]2c3cccc4[nH]cc(c34)C[C@H]21 |  | inactive: -22.2%
CN(C)c1ccc(/C=C2\C(=O)NC(=O)N(CCc3ccc(F)cc3)C2=O)cc1 | inconclusive: 17.8 µM [inhibitor, full curve, poor fit] | 
CCOP(=O)(C1=C(O)C(=O)C(C(C)(C)C)=CC1=O)c1ccccc1 (stereo not given) | inconclusive: 28.2 µM [inhibitor, full curve, poor fit] | 
C[C@H](N)C(=O)N[C@@H](C)C(=O)N[C@@H](Cc1ccccc1)C(=O)CCl (H-Ala-Ala-Phe-CH2Cl) | inconclusive: 29.9 µM [inhibitor, partial curve, poor fit] | 
O=C1C(Cl)=C(N2CCOCC2)C(=O)N1c1ccccc1F | inconclusive: 50.1 µM [inhibitor, partial curve, poor fit] | 
COc1ccccc1N1C(=O)NC(=O)/C(=C/c2ccc([N+](=O)[O-])s2)C1=O | inconclusive: 20 µM [inhibitor, full curve, poor fit] | 
CC(=O)N1CC[N+](C)(C)CC1 | inconclusive: 0.336 µM [inhibitor, full curve, poor fit] | 
O=C(O)c1ccc2c(c1)C1C(Cl)C(Sc3ccccc3[N+](=O)[O-])CC1C(c1cccc([N+](=O)[O-])c1)N2 (stereo not given) | inconclusive: 89.1 µM [inhibitor, partial curve, poor fit] | 
CO/C1=C\C(C)=C\[C@@H](C)[C@@H](O)[C@H](C)C/C(C)=C/C=C/[C@H](OC)[C@H]([C@@H](C)[C@@H](O)[C@H](C)[C@H]2C[C@@H](O)[C@H](C)[C@@H](C(C)C)O2)OC1=O | inconclusive: 21.2 µM [inhibitor, partial curve, poor fit] | 
COc1cc(Cc2ccc(N)c(OC)c2)ccc1N | inconclusive: 79.4 µM [inhibitor, partial curve, poor fit] | 
c1ccc(-c2nc(N3CCOCC3)s[n+]2-c2ccccc2)cc1 | inconclusive: 28.2 µM [inhibitor, full curve, poor fit] | 
CC[C@H](C)/C=C(C)/C=C/C1=CC2=C(Cl)C(=O)[C@](C)(OC(C)=O)C(=O)C2=CO1 | inconclusive: 31.6 µM [inhibitor, full curve, poor fit] | 
CC1=NN(c2ccccc2)C(=O)/C1=C/c1c(O)[nH]c(=S)[nH]c1=O | inconclusive: 50.1 µM [inhibitor, partial curve, poor fit] | 
O=c1oc2ccccc2c(O)c1[C@H]1c2ccc(O)cc2Oc2c1c(=O)oc1ccccc21 | inconclusive: 44.7 µM [inhibitor, partial curve, poor fit] | 
Cc1ccc(/C=C2\C(=O)NC(=S)N(c3ccccc3F)C2=O)s1 | inconclusive: 39.8 µM [inhibitor, partial curve, poor fit] | 

Source: PubChem BioAssay AID504845 (National Center for Advancing Translational Sciences (NCATS), 2011)
